Laboratory results reported in the supplement of paper PMC4166925.
± gives the standard deviation of the averaged measurements. Over roughly 33,000 sequences, “E-score (dimensionless, -0.5 to 0.5)” has its median near -0.049; the highest 2% begin near 0.37. Some of the results follow.

These sequences were tested on T1, PmTbr T-box DNA-binding domain (GST fusion) (assay: PBM E-score of 8-mer (E-score (dimensionless, -0.5 to 0.5)); Tbr is Tbrain of the sea star Patiria miniata (Pm) or the sea urchin Strongylocentrotus purpuratus (Sp); higher = stronger binding preference; most listed sequences are background and not binding sites). Conditions: the construct has about 5 more residues each side.
T1 sequence: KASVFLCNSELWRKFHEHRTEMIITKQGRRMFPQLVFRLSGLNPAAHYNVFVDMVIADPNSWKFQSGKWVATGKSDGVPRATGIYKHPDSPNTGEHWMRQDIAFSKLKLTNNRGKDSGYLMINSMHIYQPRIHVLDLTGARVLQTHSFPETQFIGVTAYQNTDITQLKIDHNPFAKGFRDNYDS
In short: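 Primer extension turned Universal Agilent oligonucleotide arrays double-stranded. They were incubated with 200 nM protein in PBS (pH 7.5); the protein was a GST-fused Tbr T-box DNA-binding domain expressed in BL21 E. coli at 20 °C and purified on glutathione. Every ungapped 8-mer was scored from the scanned, quantified probe intensities, and the Universal PBM Analysis Suite gave each an enrichment E-score averaged over duplicate arrays.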

Row | Sequence | PBM E-score of 8-mer
1 | GCACAAAA | 0.0487 ± 0.028
2 | CTCGCAAA | 0.118 ± 0.012
3 | GTCCCTAA | -0.182 ± 0.0029
4 | GACTGTAC | -0.379 ± 0.03
5 | ACCCTCTC | 0.197 ± 0.028
6 | CACCATCG | 0.232 ± 0.011
7 | CCTGGGAA | -0.14 ± 0.058
8 | CCGATTCG | -0.0584 ± 0.08
9 | ACGGTCAA | -0.225 ± 0.065
10 | ATAACCCG | -0.072 ± 0.06
11 | AACGATAA | -0.058 ± 0.085
12 | CATTACGA | -0.181 ± 0.0071
13 | CGTCATCC | -0.00112 ± 0.0046
14 | AAAGGATC | -0.159 ± 0.009
15 | CCTGATCA | -0.00924 ± 0.015
16 | AGTGCACG | -0.0285 ± 0.048
17 | CGATTGCC | -0.0231 ± 0.013
18 | CGCCGCAA | -0.0674 ± 0.0034
19 | ACTTGACT | 0.215 ± 0.013
20 | CGCTCCTA | -0.0357 ± 0.017
21 | AGGTTTTA | -0.101 ± 0.068
22 | CAATATGC | 0.0393 ± 0.036
23 | ATCGCGTC | 0.119 ± 0.025
24 | AGCAAAAG | -0.184 ± 0.071
25 | CCTAGAAA | 0.0138 ± 0.071

Row | Sequence | PBM E-score of 8-mer
26 | CTCGATAC | -0.2 ± 0.015
27 | AAGTGTAT | 0.019 ± 0.037
28 | CCTATCAA | -0.00522 ± 0.045
29 | CAGCGGCG | 0.0451 ± 0.0026
30 | CGCAGGAA | -0.0564 ± 0.03
31 | TACTTAAA | -0.246 ± 0.057
32 | AACGCTGA | 0.0543 ± 0.009
33 | TGTAAAAA | 0.0111 ± 0.14
34 | CAGGATGA | -0.185 ± 0.013
35 | ATGCGTTC | -0.317 ± 0.087
36 | AACTAGCT | 0.0609 ± 0.033
37 | GAACGGCC | -0.0495 ± 0.0031
38 | ATCGGAGA | -0.102 ± 0.012
39 | AGTGCTAG | 0.358 ± 0.0077
40 | AAACAGGG | -0.081 ± 0.025
41 | ACCCCGAA | 0.0114 ± 0.054
42 | AAGTCCTA | -0.163 ± 0.052
43 | ACGCTTGC | 0.193 ± 0.011
44 | AAAGACGC | -0.0553 ± 0.012
45 | GTGAACAA | 0.226 ± 0.037
46 | AATCTGTC | 0.214 ± 0.018
47 | ACGATACA | 0.0549 ± 0.027
48 | ACTACCCC | -0.232 ± 0.063
49 | TATCTCCA | -0.251 ± 0.012
50 | CTATACAC | -0.144 ± 0.038

Row | Sequence | PBM E-score of 8-mer
51 | CCTGCCAA | 0.158 ± 0.0047
52 | AGAGGACG | -0.109 ± 0.059
53 | CTACTTGC | 0.139 ± 0.013
54 | GGGTGGGA | 0.237 ± 0.011
55 | AGAAGGCG | 0.25289 ± 0.00013
56 | CTGGATCC | -0.081 ± 0.038
57 | GAACTCTC | -0.116 ± 0.072
58 | AATACGGT | -0.0679 ± 0.021
59 | GATCCTTA | -0.204 ± 0.064
60 | ACACGCAT | 0.186 ± 0.035
61 | CACCAAAC | 0.326 ± 0.051
62 | ATTACTTG | -0.00346 ± 0.044
63 | ATGCGCTG | -0.097 ± 0.077
64 | CCCCCCAA | -0.188 ± 0.0032
65 | GAGGAACA | 0.0589 ± 0.018
66 | CCCGTGGA | -0.0346 ± 0.024
67 | CTGTGACC | 0.102 ± 0.064
68 | GCGCCTAC | 0.215 ± 0.031
69 | CCGCCGTA | -0.273 ± 0.021
70 | AACCAGGA | -0.195 ± 0.062
71 | TAGCAAAA | 0.0785 ± 0.04
72 | GTGACCAC | 0.27 ± 0.024
73 | CCTAGACC | -0.171 ± 0.057
74 | CTACCATA | -0.107 ± 0.017
75 | AAAAGCTC | -0.113 ± 0.048

Row | Sequence | PBM E-score of 8-mer
76 | CGTGTAAA | 0.272 ± 0.062
77 | CGCCACGC | 0.104 ± 0.052
78 | CCTTGGTC | -0.226 ± 0.017
79 | CTATAGAG | -0.212 ± 0.029
80 | AAATTCGT | -0.0925 ± 0.06
81 | AACTCTAT | -0.0307 ± 0.014
82 | TCCCTGAA | -0.211 ± 0.043
83 | CTAGTCTA | -0.169 ± 0.008
84 | AATCTTTA | -0.0517 ± 0.059
85 | CCCGGTAA | -0.214 ± 0.061
86 | ACTACTAA | -0.13 ± 0.069
87 | ACCAGTTG | 0.00957 ± 0.017
88 | CAGACAAC | -0.0993 ± 0.092
89 | ATGTAACC | -0.231 ± 0.011
90 | CCTACTGA | -0.0371 ± 0.015
91 | ACACGGAG | 0.112 ± 0.013
92 | CTCTTTCC | -0.141 ± 0.021
93 | ACTCGGTG | 0.165 ± 0.033
94 | AAACTTGG | -0.127 ± 0.039
95 | ATAGCCTC | -0.264 ± 0.0037
96 | TGTCAACA | 0.378 ± 0.0046
97 | GCCGGATA | -0.3846 ± 0.00064
98 | GGGTTTCA | -0.0619 ± 0.0074
99 | GGTCCCGA | -0.258 ± 0.059
100 | CGCGCTAC | 0.222 ± 0.0032

Row | Sequence | PBM E-score of 8-mer
101 | AGCGCCTA | 0.291 ± 0.0034
102 | CAGCTTTA | 0.128 ± 0.012
103 | CGGGTGTC | 0.4001 ± 0.002
104 | ACTAGCCA | -0.136 ± 0.0066
105 | AAGACTCC | -0.346 ± 0.035
106 | AACGTCCC | 0.0795 ± 0.045
107 | TAAGCCCA | -0.108 ± 0.0083
108 | GAAGTACA | -0.072 ± 0.067
109 | AAAGGAGC | 0.0134 ± 0.068
110 | CACGCTAC | 0.21 ± 0.0061
111 | CGATCGCC | 0.00664 ± 0.058
112 | CCAGCTAC | -0.0956 ± 0.0014
113 | GAACCTCA | -0.0283 ± 0.015
114 | GGGTCGGA | -0.0673 ± 0.029
115 | ACTGGTGG | 0.0992 ± 0.011
116 | AAGGGTCC | -0.2907 ± 0.0029
117 | CTATTACA | 0.215 ± 0.027
118 | GTGGACAA | -0.0368 ± 0.05
119 | CGAGTGTC | 0.294 ± 0.018
120 | ATCGCGCC | 0.368 ± 0.016
121 | GGAGTAAA | -0.215 ± 0.013
122 | AACAGCTT | 0.224 ± 0.025
123 | GGTTAGGA | -0.248 ± 0.02
124 | CGGAGCGA | -0.0369 ± 0.015
125 | AACCATAT | -0.114 ± 0.024

Row | Sequence | PBM E-score of 8-mer
126 | CAAGTGGC | 0.268 ± 0.028
127 | GCCAAGAA | -0.184 ± 0.05
128 | TCTCAAAA | -0.18 ± 0.015
129 | CGGCTCCC | -0.105 ± 0.0077
130 | CGCGCTTC | 0.186 ± 0.003
131 | ATAAGCTG | 0.00532 ± 0.032
132 | CACCTGAC | 0.387 ± 0.018
133 | ATTCGGGG | -0.123 ± 0.0065
134 | AGACTCAT | -0.197 ± 0.051
135 | TAGACATA | -0.213 ± 0.071
136 | ACTCAGAG | -0.0864 ± 0.05
137 | ACGAACCT | -0.194 ± 0.047
138 | ATTCGGAA | -0.253 ± 0.0041
139 | CGCACAAA | 0.00904 ± 0.0019
140 | AGGGTACT | -0.0255 ± 0.011
141 | ATCCAGCG | -0.0414 ± 0.024
142 | CTAGTATA | 0.0653 ± 0.03
143 | GCACCGTA | 0.22 ± 0.041
144 | AACTACAA | 0.0706 ± 0.014
145 | AGTTCCGG | -0.175 ± 0.016
146 | GCCTTACC | -0.18 ± 0.014
147 | AATGATGT | -0.09295 ± 0.00084
148 | GAAGCCTC | -0.0948 ± 0.07
149 | TGAGTCCA | -0.202 ± 0.027
150 | GGTGCGGA | 0.405 ± 0.015

Row | Sequence | PBM E-score of 8-mer
151 | TCGCGGCA | 0.218 ± 0.03
152 | CACGACTG | -0.0385 ± 0.012
153 | CCTACGGC | -0.197 ± 0.06
154 | ATGCGATC | -0.0333 ± 0.042
155 | GATCATAA | -0.101 ± 0.0013
156 | AAACATAC | -0.249 ± 0.03
157 | AGTCCTAC | 0.00754 ± 0.011
158 | CATTAATC | -0.175 ± 0.012
159 | GGAGGTCA | 0.0158 ± 0.0067
160 | AGGACCAT | -0.191 ± 0.059
161 | CGAGCTAC | -0.0731 ± 0.092
162 | AGGTTGCG | 0.203 ± 0.015
163 | TACGGTCA | -0.149 ± 0.0075
164 | ACCGTTGC | 0.0163 ± 0.055
165 | AAATAGGC | -0.0466 ± 0.063
166 | ATGTCAAG | -0.0802 ± 0.059
167 | AGTATGGG | -0.153 ± 0.012
168 | CTAATAGC | 0.0155 ± 0.017
169 | CCCAAATA | -0.217 ± 0.024
170 | TAAATGGA | -0.183 ± 0.024
171 | GAAGACCC | -0.094 ± 0.0033
172 | AAGTGCGC | 0.138 ± 0.026
